# In ChEMBL document CHEMBL5606460, “ASAP - DENV-2 NS2B-NS3 protease fluorescence single point” (2024):
# Out of some 2,000 compounds screened, about 110 (5.5%) showed an effect of 50% or more. Some of the results follow.
# Target: Genome polyprotein (dengue virus type 2) (UniProt P29990)
# [1] = Thailand/16681/1984, Concentration 25.0 uM, Number of replicates 1.0
compound,measurement,setting,value
COc1cc(COc2cncnc2)nc(N2CCNCC2)n1,inhibition,"Thailand/16681/1984, Concentration 49.5 uM, Number of replicates 2.0, Standard deviation 3.306986633712837 %",-2.35%
same,inhibition,"Thailand/16681/1984, Concentration 99.01 uM, Number of replicates 2.0, Standard deviation 2.7720530174645646 %",-0.505%
same,inhibition,"Thailand/16681/1984, Concentration 198.0 uM, Number of replicates 2.0, Standard deviation 2.4477408574870583 %",0.524%
O=Cc1ccc(N2CCC(C(=O)NCCOc3ccc(F)cc3)CC2)cc1,inhibition,[1],14.7%
Cc1cc(CO)c2cccc(Cc3cccc(C(=O)NC[C@H](C)O)c3)c2n1,inhibition,"Thailand/16681/1984, Concentration 49.95 uM, Number of replicates 2.0, Standard deviation 1.3417230059830858 %",-6.96%
same,inhibition,"Thailand/16681/1984, Concentration 99.9 uM, Number of replicates 2.0, Standard deviation 0.8544771145149516 %",-2.86%
O=Cc1ccc(N2CCC(C(=O)Nc3ccc(Oc4ccccc4Cl)cc3)CC2)cc1,inhibition,[1],1.73%
O=Cc1ccc(N2CCC(C(=O)NCc3ccc(Oc4ccccc4)cc3)CC2)cc1,inhibition,[1],0.672%
Cn1ccc(CN2CC[C@H](c3c[nH]c4ccccc34)C2)cc1=O,inhibition,"Thailand/16681/1984, Concentration 49.5 uM, Number of replicates 2.0, Standard deviation 0.21460734300344697 %",0.103%
same,inhibition,"Thailand/16681/1984, Concentration 99.01 uM, Number of replicates 2.0, Standard deviation 0.11163920453838377 %",1.03%
same,inhibition,"Thailand/16681/1984, Concentration 198.0 uM, Number of replicates 2.0, Standard deviation 0.8654745549171718 %",1.07%
Cc1cn[nH]c1CNC(=O)[C@]1(c2ccc(F)cc2)CCCNC1,inhibition,"Thailand/16681/1984, Concentration 49.5 uM, Number of replicates 2.0, Standard deviation 0.2704269505409949 %",-0.869%
same,inhibition,"Thailand/16681/1984, Concentration 99.01 uM, Number of replicates 2.0, Standard deviation 0.4991246013992932 %",-1.21%
same,inhibition,"Thailand/16681/1984, Concentration 198.0 uM, Number of replicates 2.0, Standard deviation 1.3309990354074284 %",-0.684%
COC[C@@H](C)CN1CC[C@H](c2c[nH]c3ccccc23)C1,inhibition,"Thailand/16681/1984, Concentration 49.5 uM, Number of replicates 2.0, Standard deviation 0.08616808327890092 %",0.241%
same,inhibition,"Thailand/16681/1984, Concentration 99.01 uM, Number of replicates 2.0, Standard deviation 0.5148408240342175 %",1.15%
same,inhibition,"Thailand/16681/1984, Concentration 198.0 uM, Number of replicates 2.0, Standard deviation 0.4481825063942973 %",1.88%
O=Cc1ccc(N2CCC(C(=O)N[C@H](c3ccccc3)C(F)(F)F)CC2)cc1,inhibition,[1],13.1%
O=Cc1ccc(N2CCC(C(=O)NC3CCN(Cc4ccccc4F)CC3)CC2)cc1,inhibition,[1],16.3%
CCCCCC(=O)N[C@H](C(=O)N1CCNCC1)c1ccc(OCc2ccccc2)cc1,inhibition,"Thailand/16681/1984, Concentration 49.5 uM, Number of replicates 2.0, Standard deviation 0.4437756319139982 %",0.147%
same,inhibition,"Thailand/16681/1984, Concentration 99.01 uM, Number of replicates 2.0, Standard deviation 0.11965810608291498 %",0.812%
same,inhibition,"Thailand/16681/1984, Concentration 198.0 uM, Number of replicates 2.0, Standard deviation 0.14254932391463687 %",1.93%
CC(C)(C)C1CCC(NC(=O)C2CCN(c3ccc(C=O)cc3)CC2)CC1 (stereo not drawn),inhibition,[1],12.1%
O=Cc1ccc(N2CCC(C(=O)NCc3ccc(Br)cc3)CC2)cc1,inhibition,[1],4.59%
CNC(=O)c1cc(Cl)ccc1NS(=O)(=O)c1ccccc1C#N,inhibition,"Thailand/16681/1984, Concentration 49.5 uM, Number of replicates 2.0, Standard deviation 0.10251032359146967 %",1.55%
same,inhibition,"Thailand/16681/1984, Concentration 99.01 uM, Number of replicates 2.0, Standard deviation 0.28156151571484545 %",3.55%
same,inhibition,"Thailand/16681/1984, Concentration 198.0 uM, Number of replicates 2.0, Standard deviation 0.7872788535987583 %",6.07%
CCN(Cc1cccc(Cl)c1)C(=O)C1CCN(c2ccc(C=O)cc2)CC1,inhibition,[1],14.9%
CN1CCN(C[C@H]2CCCN(C(=O)C3CCN(c4ccc(C=O)cc4)CC3)C2)CC1,inhibition,[1],14.4%
O=Cc1ccc(N2CCC(C(=O)NCC(=O)NCC(F)(F)F)CC2)cc1,inhibition,[1],9.52%
O=C1CC[C@H](NS(=O)(=O)c2ccc(Oc3ccccc3)cc2)CN1,inhibition,"Thailand/16681/1984, Concentration 49.5 uM, Number of replicates 2.0, Standard deviation 1.369122840787412 %",-5.36%
same,inhibition,"Thailand/16681/1984, Concentration 99.01 uM, Number of replicates 2.0, Standard deviation 0.9220307576577886 %",-4.67%
same,inhibition,"Thailand/16681/1984, Concentration 198.0 uM, Number of replicates 2.0, Standard deviation 1.7703195346995826 %",-3.62%
O=Cc1ccc(N2CCC(C(=O)N3CCC(O)(Cc4ccccn4)CC3)CC2)cc1,inhibition,[1],12.5%
O=Cc1ccc(N2CCC(C(=O)Nc3cccc(Br)n3)CC2)cc1,inhibition,[1],92.6%
O=Cc1ccc(N2CCC(C(=O)Nc3ccc(I)cn3)CC2)cc1,inhibition,[1],13.3%
COc1cc(C(=O)N[C@@H](C)C(=O)O)nc(N2CCNCC2)n1,inhibition,"Thailand/16681/1984, Concentration 49.5 uM, Number of replicates 2.0, Standard deviation 1.579518897029431 %",-5.46%
same,inhibition,"Thailand/16681/1984, Concentration 99.01 uM, Number of replicates 2.0, Standard deviation 2.2566031293225164 %",-5.38%
same,inhibition,"Thailand/16681/1984, Concentration 198.0 uM, Number of replicates 2.0, Standard deviation 0.022174131351157523 %",-3.27%
Cn1cc(NC(=O)c2ccccc2C(F)(F)F)c(-c2cncnc2)n1,inhibition,"Thailand/16681/1984, Concentration 49.5 uM, Number of replicates 2.0, Standard deviation 1.0537470770996704 %",-3.01%
same,inhibition,"Thailand/16681/1984, Concentration 99.01 uM, Number of replicates 2.0, Standard deviation 0.3950344031913927 %",-1.1%
same,inhibition,"Thailand/16681/1984, Concentration 198.0 uM, Number of replicates 2.0, Standard deviation 3.4896318048296595 %",-2.3%
COc1ccccc1CN(C(=O)C1CCN(c2ccc(C=O)cc2)CC1)C1CC1,inhibition,[1],13.9%
